Screen size: about 310,000 compounds; about 14,000 (4.5%) showed an effect of 50% or more. Effects have a minus sign here. This is one part of the list.
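Also: peak tail current of the secondary pulse compared with the same well before compound.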

Sequence of human ether-à-go-go-related gene (hERG) potassium channel (Q12809 whole entry, looked up): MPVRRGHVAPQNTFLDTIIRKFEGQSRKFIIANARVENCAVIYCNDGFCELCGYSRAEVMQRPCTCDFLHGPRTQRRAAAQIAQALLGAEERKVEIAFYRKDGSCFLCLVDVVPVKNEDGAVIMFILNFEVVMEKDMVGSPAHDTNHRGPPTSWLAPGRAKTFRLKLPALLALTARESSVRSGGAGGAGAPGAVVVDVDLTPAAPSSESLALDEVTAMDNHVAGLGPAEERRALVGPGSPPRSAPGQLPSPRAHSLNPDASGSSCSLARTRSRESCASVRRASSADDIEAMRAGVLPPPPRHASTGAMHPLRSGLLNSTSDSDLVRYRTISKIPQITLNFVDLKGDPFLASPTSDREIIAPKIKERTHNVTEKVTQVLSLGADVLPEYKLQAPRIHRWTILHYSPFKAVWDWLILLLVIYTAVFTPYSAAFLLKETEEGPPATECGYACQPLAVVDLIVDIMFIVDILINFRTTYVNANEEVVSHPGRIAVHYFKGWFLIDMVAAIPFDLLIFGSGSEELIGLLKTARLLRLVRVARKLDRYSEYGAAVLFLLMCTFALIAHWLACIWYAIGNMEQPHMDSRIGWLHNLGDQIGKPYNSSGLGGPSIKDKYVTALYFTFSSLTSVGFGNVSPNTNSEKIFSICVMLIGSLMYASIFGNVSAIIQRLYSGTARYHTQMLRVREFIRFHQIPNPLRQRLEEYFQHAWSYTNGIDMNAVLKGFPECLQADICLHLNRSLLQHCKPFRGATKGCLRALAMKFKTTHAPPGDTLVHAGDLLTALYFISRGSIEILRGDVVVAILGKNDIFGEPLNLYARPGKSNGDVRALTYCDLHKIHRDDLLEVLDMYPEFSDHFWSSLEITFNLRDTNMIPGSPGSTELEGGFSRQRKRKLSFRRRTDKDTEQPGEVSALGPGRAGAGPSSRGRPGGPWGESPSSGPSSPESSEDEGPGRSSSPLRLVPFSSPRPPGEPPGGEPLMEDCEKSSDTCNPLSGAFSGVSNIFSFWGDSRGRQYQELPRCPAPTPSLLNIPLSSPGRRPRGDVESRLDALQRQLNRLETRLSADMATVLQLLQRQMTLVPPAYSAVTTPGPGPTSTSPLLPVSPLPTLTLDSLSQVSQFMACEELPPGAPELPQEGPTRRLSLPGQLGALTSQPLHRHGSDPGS

This test concerns the target human ether-à-go-go-related gene (hERG) potassium channel (human, UniProt Q12809). Description: primary screen, population patch clamp on CHO cells stably expressing hERG.
For `CCOc1ccc(Nc2nc(Cc3nnc(SCC(=O)c4ccc(C)c(C)c4)o3)cs2)cc1`, the “hERG current change (%, negative = inhibition) at 10uM” value is recorded as 0.743%.

For the compound `CCN1CCC(NC(=O)c2cc(OC)c(OC)cc2OC)CC1`, the “hERG current change (%, negative = inhibition) at 10uM” value was -8.92%.

Turning to `Cc1cc(C)cc(NC(=O)COc2coc(CN3CCc4ccccc43)cc2=O)c1`, the “hERG current change (%, negative = inhibition) at 10uM” value was 2.85%.

Take `CCN(CC)c1ccc(N=Nc2nn(C)c(C)c2[N+](=O)[O-])cc1`: the “hERG current change (%, negative = inhibition) at 10uM” value is on record as -1.25%.

As to `NC(=O)[C@@H]1[C@@H]2C(=O)N(c3ccc(F)cc3)C(=O)[C@@H]2[C@H]2C=Cc3ccccc3N21`, the “hERG current change (%, negative = inhibition) at 10uM” value amounted to 14.2%.

As to `COc1ccccc1-c1noc(-c2cccs2)n1`, the “hERG current change (%, negative = inhibition) at 10uM” value came out at 1.86%.

With `COc1cccc(CN(C)CC(=O)NC(=O)NCc2ccccc2)c1`, the “hERG current change (%, negative = inhibition) at 10uM” value is listed as 5.74%.

In the case of `C#CCOCCOCCOCCNc1nc(N2CCN(C(=O)C([C@@H](C)CC)n3cc(C(N)Cc4ccc(O)cc4)nn3)CC2)nc(N2CCN(C(=O)[C@H](CCC(=O)O)n3cc(C(N)CC(C)C)nn3)CC2)n1.Cl` (stereo partly shown), the “hERG current change (%, negative = inhibition) at 10uM” value was determined as 3.43%.

With `Clc1ccc(N2N=C(c3cccs3)CC2c2ccco2)cc1` (stereo not shown), the “hERG current change (%, negative = inhibition) at 10uM” value turned out to be 0.684%.

On to `c1ccc2[nH]c(-c3ccnc4ccccc34)nc2c1`, for which the “hERG current change (%, negative = inhibition) at 10uM” value worked out at 1.25%.

`O=C(CSc1nnc(Cc2ccccc2)o1)N1CCc2ccccc21`: the “hERG current change (%, negative = inhibition) at 10uM” value was determined as 7.54%.

On to `COC(=O)c1ccccc1N1C(=O)C2C(C1=O)[C@H]1C=C[C@@H]2C1` (stereo partly shown), for which the “hERG current change (%, negative = inhibition) at 10uM” value was -2.08%.

`COCCNC(=O)CCC1CCN(Cc2ccc(-c3ccccc3)cc2)CC1`: the “hERG current change (%, negative = inhibition) at 10uM” value was -63.6%.

For the compound `Cc1ccc(N2CC(C(=O)OCC(=O)Nc3cc(C)on3)CC2=O)c(C)c1` (stereo not shown), the “hERG current change (%, negative = inhibition) at 10uM” value is on record as 14.9%.

For the compound `COc1ccc(CCC(=O)Nc2ccc(OC)c(S(=O)(=O)N3CCCCC3)c2)cc1OC`, the “hERG current change (%, negative = inhibition) at 10uM” value was -19.2%.

In the case of `C=COC(=O)c1sc2nc(C)cc(C)c2c1N`, the “hERG current change (%, negative = inhibition) at 10uM” value stood at 20.2%.

For the compound `CC(=O)N1CCc2cc(S(=O)(=O)C(C)CC(=O)Nc3ccc(OC(F)(F)F)cc3)ccc21` (stereo not shown), the “hERG current change (%, negative = inhibition) at 10uM” value was -16.6%.

For the compound `Cc1ccc(C(=O)N[C@H](C(=O)OCc2cc(=O)oc3cc(C)ccc23)C(C)C)cc1`, the “hERG current change (%, negative = inhibition) at 10uM” value was -2.78%.

Consider `Cc1ccccc1NC(=S)N(CCCN1CCC(C)CC1)Cc1ccco1`, for which the “hERG current change (%, negative = inhibition) at 10uM” value is on record as -47.9%.

Turning to `CCCCCC(=O)Nc1ccc(C(=O)N/N=C/c2ccc([N+](=O)[O-])cc2)cc1`, the “hERG current change (%, negative = inhibition) at 10uM” value is -1.24%.

With `COc1cccc(NC(=O)CN(c2ccc3c(c2)OCO3)S(C)(=O)=O)c1`, the “hERG current change (%, negative = inhibition) at 10uM” value was 3.07%.

For the compound `CC(C)c1nnc(NC(=O)CCC(=O)NCc2ccc3c(c2)OCO3)s1`, the “hERG current change (%, negative = inhibition) at 10uM” value turned out to be 13%.

For the compound `COc1ccccc1/C=C/C(=O)Nc1cccc(C(C)=O)c1`, the “hERG current change (%, negative = inhibition) at 10uM” value is reported as -5.89%.

As to `Cc1cc(S(=O)(=O)n2cnc3ccccc32)c(C)cc1Cl`, the “hERG current change (%, negative = inhibition) at 10uM” value is -4.51%.

With `CCN1CCC(=NNC(=O)c2ccco2)CC1`, the “hERG current change (%, negative = inhibition) at 10uM” value is 2.31%.

Take `Cc1ccc(S(=O)(=O)NCCC(=O)NC(C)c2ccccc2)cc1` (stereo not shown): the “hERG current change (%, negative = inhibition) at 10uM” value was 11.9%.

Regarding `Cc1cc(C)c(S(=O)(=O)N2CCN(C(=O)C3CCCO3)CC2)c(C)c1` (stereo not shown), the “hERG current change (%, negative = inhibition) at 10uM” value is -17.1%.

Consider `CCOc1ccc(Cc2nc(C)c(CC(=O)N3CCOCC3)c(=O)[nH]2)cc1`, for which the “hERG current change (%, negative = inhibition) at 10uM” value is recorded as 8.37%.

With `CC(=O)Oc1ccc2occ(C(=O)c3ccccc3)c2c1`, the “hERG current change (%, negative = inhibition) at 10uM” value is -9.85%.

Turning to `CC1(C(=O)N2CC3(CC(c4ccccc4)=NO3)C[C@H]2C(=O)NCC(N)=O)CC1` (stereo partly shown), the “hERG current change (%, negative = inhibition) at 10uM” value is -3.4%.

With `COc1cc(C)ccc1OCCON1C(=O)CCC1=O`, the “hERG current change (%, negative = inhibition) at 10uM” value amounted to 11%.

On to `O=C(NCc1nnc(SCC(=O)N2CCCc3ccccc32)n1-c1ccccc1)c1cccc2ccccc12`, for which the “hERG current change (%, negative = inhibition) at 10uM” value came out at 3.06%.

In the case of `COc1ccc(C(=O)CSc2nnc(-c3ccoc3C)n2CC2CCCO2)cc1` (stereo not shown), the “hERG current change (%, negative = inhibition) at 10uM” value is -11.7%.

Regarding `COc1ccc(S(=O)(=O)Nc2ccc3c(c2)n(C)c(=O)n3C)cc1`, the “hERG current change (%, negative = inhibition) at 10uM” value is given as 13.4%.

Consider `CCCCCOc1ccc(C(=O)NCC(=O)NCC(=O)OCC)cc1`, for which the “hERG current change (%, negative = inhibition) at 10uM” value is reported as 3.49%.

Turning to `Cc1oc(/N=C/c2ccc(F)cc2)c(C#N)c1C`, the “hERG current change (%, negative = inhibition) at 10uM” value came out at 25.1%.

`CC1=Nc2ccccc2N=C(NC(=O)c2ccccc2)C1c1ccccc1` (stereo not shown): the “hERG current change (%, negative = inhibition) at 10uM” value is -9.83%.

For the compound `Cc1cc2cc(C(c3nnnn3Cc3ccco3)N3CCc4ccccc43)c(=O)[nH]c2cc1C` (stereo not shown), the “hERG current change (%, negative = inhibition) at 10uM” value came to 9.41%.

Consider `CC1(C)NC(=O)N(CC(O)Cn2c3ccccc3c3ccccc32)C1=O` (stereo not shown), for which the “hERG current change (%, negative = inhibition) at 10uM” value was 1.48%.

As to `COc1cc(C)ccc1OCc1cc(C(=O)N(Cc2nccn2C)C(C)C)no1`, the “hERG current change (%, negative = inhibition) at 10uM” value is given as -0.39%.

Turning to `CC(C)CN(C(=O)COC(=O)C12CC3CC(CC(O)(C3)C1)C2)C1CCS(=O)(=O)C1` (stereo not shown), the “hERG current change (%, negative = inhibition) at 10uM” value is 20%.

In the case of `CCCOc1cccc(C(=O)NC(=S)Nc2ccccc2)c1`, the “hERG current change (%, negative = inhibition) at 10uM” value came to 15%.

`Cc1ccn2c(NC3CCCC3)c(-c3ccsc3)nc2c1`: the “hERG current change (%, negative = inhibition) at 10uM” value was -36.9%.

The record behind these values is article PMC4336329 (PLoS ONE, 2015).
